# Laboratory results from paper PMC4336329 (PLoS ONE, 2015).
# Hit rate of the full screen: of about 310,000 compounds, about 14,000 (4.5%) showed an effect of 50% or more. The effect is printed as a negative number. Some of the results follow.
# Molecular target: human ether-à-go-go-related gene (hERG) potassium channel (human, UniProt Q12809)
# Test: primary screen, population patch clamp on CHO cells stably expressing hERG
# 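Also: peak tail current of the secondary pulse compared with the same well before compound.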
# Chain of human ether-à-go-go-related gene (hERG) potassium channel (Q12809 whole entry, looked up): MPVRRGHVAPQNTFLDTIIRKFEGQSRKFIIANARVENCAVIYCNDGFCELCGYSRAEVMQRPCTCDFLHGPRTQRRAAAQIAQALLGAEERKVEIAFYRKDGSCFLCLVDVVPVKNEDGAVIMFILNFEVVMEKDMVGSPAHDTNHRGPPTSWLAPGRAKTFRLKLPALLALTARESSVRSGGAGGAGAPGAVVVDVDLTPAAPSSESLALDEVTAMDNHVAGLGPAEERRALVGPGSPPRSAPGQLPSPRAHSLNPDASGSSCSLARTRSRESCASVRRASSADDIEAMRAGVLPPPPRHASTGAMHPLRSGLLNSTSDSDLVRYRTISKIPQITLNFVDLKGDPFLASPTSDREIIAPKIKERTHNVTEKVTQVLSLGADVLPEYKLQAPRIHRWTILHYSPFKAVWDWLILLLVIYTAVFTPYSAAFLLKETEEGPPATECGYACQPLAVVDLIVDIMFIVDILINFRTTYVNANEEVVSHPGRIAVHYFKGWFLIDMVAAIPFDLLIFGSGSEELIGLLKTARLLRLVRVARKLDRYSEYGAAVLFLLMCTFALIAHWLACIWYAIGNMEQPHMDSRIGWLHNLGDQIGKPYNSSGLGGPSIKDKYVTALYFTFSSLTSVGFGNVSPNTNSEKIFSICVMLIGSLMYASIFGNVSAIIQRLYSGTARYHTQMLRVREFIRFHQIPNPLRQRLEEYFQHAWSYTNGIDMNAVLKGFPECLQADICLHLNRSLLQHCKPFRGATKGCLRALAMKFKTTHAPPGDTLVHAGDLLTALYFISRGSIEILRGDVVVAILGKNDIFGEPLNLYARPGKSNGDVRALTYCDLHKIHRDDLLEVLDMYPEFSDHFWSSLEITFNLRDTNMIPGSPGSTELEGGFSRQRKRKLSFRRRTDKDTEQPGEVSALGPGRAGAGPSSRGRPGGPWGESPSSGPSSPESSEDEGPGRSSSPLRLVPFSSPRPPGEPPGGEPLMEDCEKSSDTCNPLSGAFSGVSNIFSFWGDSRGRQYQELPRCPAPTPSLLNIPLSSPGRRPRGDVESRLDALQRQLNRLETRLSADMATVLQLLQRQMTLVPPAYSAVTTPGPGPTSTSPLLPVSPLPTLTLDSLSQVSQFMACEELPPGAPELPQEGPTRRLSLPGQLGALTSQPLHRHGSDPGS
row,SMILES,"hERG current change (%, negative = inhibition) at 10uM [%]"
1,CC(Sc1ccccc1)C(=O)Nc1ccc(N2CCOCC2)cc1 (stereo not drawn),-7.09
2,CCC1(CC)NC(=O)N(CC(=O)NC(=O)NCc2ccccc2)C1=O,11.7
3,COc1ccc2[nH]c(=O)c(CN(Cc3ccco3)C(c3nnnn3Cc3ccccc3)C(C)C)cc2c1 (stereo not drawn),-19.8
4,N/C(=N\c1nc(C(F)(F)F)cc(=O)[nH]1)Nc1ccc(Cl)cc1,-2.92
5,Cc1ccccc1Cn1c(=O)sc2ccccc2c1=O,9.73
6,CCN(CC)C(=O)CS(=O)(=O)CC(=O)Nc1cc(OCCOC)c(Cl)cc1Cl,-12.8
7,O=C(NCc1ccco1)c1cc(-c2ccccc2)nc2ccccc12,-16.5
8,O=C(CCC(=O)c1ccc(F)cc1)Nc1cccnc1,1.31
9,O=C(CCSc1nnc2scc(-c3ccccc3)n12)Nc1nc(-c2ccccc2)ns1,6.01
10,O=C(NNS(=O)(=O)c1ccccc1)c1ccc([N+](=O)[O-])cc1,-8.91
11,O=C(N/N=C/c1cccc2nccnc12)c1ccccc1O,-0.891
12,Cc1ccc(C(=O)CSc2nnc3c4ccccc4nc(C(C)(C)C)n23)cc1,12.8
13,Cc1c(NC2(C#N)CCCCC2)c(=O)n(-c2ccccc2)n1C,16.2
14,CCOc1cc2[nH]c(=O)n(Cc3ccc(C(=O)NCCCN4CCCC4=O)cc3)c(=O)c2cc1OCC,16.2
15,CCc1nnc(NC(=O)C2CCN(C(=O)NC3CCCCC3)CC2)s1,-4.36
16,CSc1ccc(/C=C/C(=O)OCC(=O)NC2CCS(=O)(=O)C2)cc1 (stereo not drawn),12
17,CC(C)(C)C(=O)Nc1ccccc1C(=O)Nc1ccncc1,15.2
18,COc1ccc(C(O)c2nccn2Cc2ccccc2)cc1 (stereo not drawn),9.83
19,CCc1ccc(C2C(C#N)=C(N)Oc3n[nH]c(CC(=O)OC)c32)cc1 (stereo not drawn),-2.08
20,CCn1c(SCC(=O)c2ccc3ccccc3c2)nnc1-c1ccco1,-0.477
21,CC(=O)c1ccc(N(CC(=O)NCC2CCCO2)C(=O)CCC(=O)Nc2cc(C)on2)cc1 (stereo not drawn),22.4
22,CCN(C(=O)COC(=O)Cc1coc2cc(C)ccc12)c1c(N)n(Cc2ccccc2)c(=O)[nH]c1=O,-7.54
23,CC1(C)C(=O)OC(/C=C/c2cccc([N+](=O)[O-])c2)C(C)(C)C1=O (stereo not drawn),20.8
24,O=C(O)c1ccc(/C=C2\CCCc3c2nc2ccccc2c3C(=O)O)cc1,17.4
25,COc1ccc(CSCC(=O)Nc2ccc(S(=O)(=O)N3CCCCCC3)cc2)cc1,-6.24
26,O=C(CN1CCOCC1)NCC(=O)Nc1ccc(Br)cc1C(=O)c1ccccc1,-37.1
27,Oc1ccc(CN2CCN(c3ncccn3)CC2)cc1,12.4

row,SMILES,"hERG current change (%, negative = inhibition) at 10uM [%]"
1,COc1ccc(CNC(=O)C2CC(C)=CCC2C(=O)O)cc1 (stereo not drawn),18.3
2,CCCCC(CC)CNC(=O)c1cccs1 (stereo not drawn),8.33
3,CCOCCOC(=O)C1=C(C)N(C)C(=O)NC1c1ccccc1Cl (stereo not drawn),9.54
4,O=C(CN(Cc1ccco1)C(=O)CNS(=O)(=O)c1ccc(F)cc1)NCc1ccccc1,-28.4
5,Oc1c(C=C2N=c3ccccc3=N2)sc(=S)n1C1CCCC1,2.45
6,CC(OC(=O)Cn1cnc2c1c(=O)n(C)c(=O)n2C)C(=O)NC(C)c1ccc(Cl)cc1Cl (stereo not drawn),-29
7,Cc1ccc(N(CC(=O)NC2CCC(C)CC2)S(=O)(=O)c2cccnc2)cc1 (stereo not drawn),-9.73
8,Cc1onc(-c2ccccc2)c1C(=O)NCC1COc2ccccc2O1 (stereo not drawn),-7.91
9,CCOC(=O)C(C)(C)N(Cc1ccc(Cl)cc1)S(=O)(=O)c1ccc(Cl)c([N+](=O)[O-])c1,-2.82
10,COc1ccccc1CNC(=O)N1CCN(c2ccccc2)CC1,-16.9
11,Cc1ccc(C(=O)CSc2nnc(-c3snnc3C)n2C2CC2)cc1,2.82
12,NC(=O)c1ccsc1NC(=O)COC(=O)CCOc1ccccc1,-4.76
13,COC(CN(C)C(=O)C1CCCN(S(=O)(=O)c2ccc3c(c2)oc(=O)n3C)C1)OC (stereo not drawn),18.4
14,CCOc1ccc(C2C(C(=O)c3ccc(C)o3)=C(O)C(=O)N2CCCN(CC)CC)cc1 (stereo not drawn),14.8
15,CC1CCN(CCC(=O)Nc2ccc3c(c2)OCCO3)CC1.O=C(O)C(=O)O,30.3
16,Cc1cccn2c(=O)c3cc(C(=O)NCC4CCCO4)c(=N)n(Cc4cccnc4)c3nc12 (stereo not drawn),-95.1
17,CCOC(=O)CSc1nnc(NCC(=O)OC(C)C)c(=O)[nH]1,17.9
18,COc1cccc(-c2cc(C(F)(F)F)n3nc(C(=O)Nc4c(C)n(C)n(-c5ccccc5)c4=O)cc3n2)c1,-10.1
19,Cc1ccc(C(C)(C)C)cc1S(=O)(=O)Nc1nc2ccccc2nc1Cl,-33.6
20,CC(Sc1ncn[nH]1)C(=O)Nc1cc(C(F)(F)F)ccc1Cl (stereo not drawn),-3.46
21,O=C(Nc1ccc(Cl)cn1)C1CCCN1S(=O)(=O)c1ccccc1 (stereo not drawn),-14.9
22,Cc1cccc(/C(N)=N/OC(=O)Cc2cccs2)c1,-12.4
23,Cc1ccccc1OCCSc1nc2ccccc2n1CCC(=O)O,18.1
24,Cc1ccc2c(C)c(C(=O)N(Cc3ccc(N(C)C)cc3)C3CCS(=O)(=O)C3)oc2c1 (stereo not drawn),-12.9
25,CC(=O)N1CCC(N2CCCC(C(=O)c3cccc(Cl)c3)C2)CC1 (stereo not drawn),5.55
26,COc1ccc(C2=CC3=C(Br)C(=O)C(C)(OC(=O)C4CCCC4)C(=O)C3=CO2)cc1 (stereo not drawn),-20.9
27,CCc1cc(C(=O)O)c(NC(=O)/C=C/c2ccc(OC)c(OC)c2)s1,45
